Source: PubChem BioAssay AID1347165 (National Center for Advancing Translational Sciences (NCATS), 2019)
In all, about 220,000 compounds went through this assay and about 5,700 (2.6%) were called active. This list was built around the results that the source calls inconclusive (neither active nor inactive); the mix of calls is not that of the screen. The call rests on the fitted dose curve; in most records, active means well fitted inhibition curve with a large enough effect; inconclusive means small, poorly fitted or top-dose-only effect; inactive means no such curve, though single readings can be large or run the other way. Where the call is inconclusive, the potency comes from a doubtful curve fit.

Target: Lysine-specific demethylase 5B (Homo sapiens) (UniProt Q9UGL1)
Assay: Primary screen for KDM5B Histone Demethylases FDH-coupled qHTS; further: nearly all actives have a fitted effect of over 70% in size; on activity change, negative = inhibition: 0% is about no effect
Details: FDH-coupled NADH fluorescence (FDH is formaldehyde dehydrogenase); activity change, negative = inhibition: at 57.7 µM (top of the series) unless noted
Method in brief: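 Coupled FDH/NAD⁺ fluorescence readout. KDM5BΔAP 200 nM final; compound titration, 10 min RT preincubation; substrate mix 12.5 µM H3K4me3, 25 µM 2-OG, 50 µM Fe(II), 100 µM ascorbate, 0.25 mM NAD⁺, 0.25 U/mL FDH; ΔRFU over 30 min.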
Potency means the concentration at half of the fitted maximal effect; tags describe the fitted curve by direction and shape.

UniProt Q9UGL1, sequence (Q9UGL1 whole entry, looked up): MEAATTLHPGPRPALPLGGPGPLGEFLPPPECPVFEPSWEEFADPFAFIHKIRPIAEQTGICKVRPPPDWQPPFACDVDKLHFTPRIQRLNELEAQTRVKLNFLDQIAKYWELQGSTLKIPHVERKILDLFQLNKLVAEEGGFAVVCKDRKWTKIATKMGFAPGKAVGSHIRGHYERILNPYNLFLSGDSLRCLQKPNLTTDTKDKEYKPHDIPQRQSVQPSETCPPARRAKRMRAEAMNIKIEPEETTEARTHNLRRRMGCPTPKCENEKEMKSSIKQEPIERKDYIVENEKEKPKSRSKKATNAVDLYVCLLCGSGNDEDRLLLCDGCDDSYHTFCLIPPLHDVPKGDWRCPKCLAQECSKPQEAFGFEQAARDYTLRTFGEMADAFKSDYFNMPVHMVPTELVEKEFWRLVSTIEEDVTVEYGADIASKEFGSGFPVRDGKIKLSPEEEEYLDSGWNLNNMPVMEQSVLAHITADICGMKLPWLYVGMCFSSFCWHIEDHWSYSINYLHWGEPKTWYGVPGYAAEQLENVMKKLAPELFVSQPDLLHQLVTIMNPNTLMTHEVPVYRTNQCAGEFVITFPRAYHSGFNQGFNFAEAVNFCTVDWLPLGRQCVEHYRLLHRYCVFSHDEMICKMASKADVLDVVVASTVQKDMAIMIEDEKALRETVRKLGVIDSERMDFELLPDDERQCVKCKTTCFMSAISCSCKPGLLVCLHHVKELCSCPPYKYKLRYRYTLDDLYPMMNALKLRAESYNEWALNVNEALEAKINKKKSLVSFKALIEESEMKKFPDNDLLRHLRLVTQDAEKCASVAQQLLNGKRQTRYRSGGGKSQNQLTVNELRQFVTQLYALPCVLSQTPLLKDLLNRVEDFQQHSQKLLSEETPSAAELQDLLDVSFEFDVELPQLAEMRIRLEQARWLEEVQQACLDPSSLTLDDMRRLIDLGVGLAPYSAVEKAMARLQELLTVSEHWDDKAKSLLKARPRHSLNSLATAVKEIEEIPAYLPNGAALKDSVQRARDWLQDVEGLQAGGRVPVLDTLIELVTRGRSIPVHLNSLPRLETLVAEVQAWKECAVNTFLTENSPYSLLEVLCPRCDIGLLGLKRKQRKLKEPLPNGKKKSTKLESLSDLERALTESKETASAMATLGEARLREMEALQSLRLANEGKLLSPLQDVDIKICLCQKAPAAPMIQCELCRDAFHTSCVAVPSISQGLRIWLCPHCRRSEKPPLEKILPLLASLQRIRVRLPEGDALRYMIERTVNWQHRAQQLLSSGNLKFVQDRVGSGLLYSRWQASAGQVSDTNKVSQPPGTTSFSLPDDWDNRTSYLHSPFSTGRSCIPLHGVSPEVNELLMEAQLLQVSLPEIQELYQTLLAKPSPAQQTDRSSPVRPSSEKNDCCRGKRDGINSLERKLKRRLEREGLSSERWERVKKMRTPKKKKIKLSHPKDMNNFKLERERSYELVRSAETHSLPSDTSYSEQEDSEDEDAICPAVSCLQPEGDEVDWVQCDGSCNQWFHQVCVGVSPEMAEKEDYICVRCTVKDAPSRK

SMILES | Potency | activity change, negative = inhibition
COc1ccc(-c2ccc3ncn(Cc4ccccn4)c(=O)c3n2)cc1F | active: 35.5 µM | 
CCN(CC)C(=O)C1CCCN(c2ncnc3c2c(-c2ccccc2)cn3-c2cccc(C)c2)C1 (stereo unspecified) | inconclusive: 35.5 µM [inhibitor, partial curve, poor fit] | 
O=C(CC12CC3CC(CC(C3)C1)C2)NCc1ccc(Cl)cc1Cl | inactive | 
Cc1ccc(C(=O)N2CCN(c3oc(-c4cccs4)nc3C#N)CC2)cc1 | inactive | 
CCCn1cc(C2CCN(S(=O)(=O)c3c(C)c(C)cc(C)c3C)CC2)c2ccccc21 | inconclusive: 35.5 µM [inhibitor, single point] | 
Cc1ccc(CNC(=O)CCCc2nnc3n(CC(C)C)c(=O)c4sccc4n23)cc1 |  | inconclusive: -36% [inhibitor]
COc1ccc(C(=O)/C=C/c2cccs2)c(OC(=O)c2ccco2)c1 | inactive | 
N#Cc1nc(C2CC2)oc1N1CCN(Cc2ccccc2Cl)CC1 | inactive | 
CCc1ccc(C(=O)c2cnc3ccc(OC)cc3c2N2CCOCC2)cc1 | inactive | 
COC(=O)c1ccc(OC(=O)c2cc(-c3cccs3)nc3ccccc23)cc1 | inconclusive: 14.1 µM [inhibitor, partial curve, poor fit] | 
Cc1n[nH]c(C)c1CNC(=O)CCC[C@H]1NC[C@@H]2C[C@H]1CN(Cc1ccccc1)C2 | inconclusive: 17.8 µM [inhibitor, partial curve, poor fit] | 
COC(=O)[C@@H]1Cc2c([nH]c3ccccc23)[C@H]2C[C@@H](NCCCn3ccnc3)C[C@@H](c3cccc(Cl)c3)N21 | inconclusive: 5.01 µM [inhibitor, single point] | 
Cc1ccn2c(Nc3ccc4c(c3)OCCO4)c(-c3ccc(N(C)C)cc3)nc2c1 | inconclusive: 2.82 µM [inhibitor, full curve, poor fit] | 
COc1ccc(N2CCCS2(=O)=O)cc1NS(=O)(=O)c1ccc(F)c(C)c1 | inactive | 
CCc1ccc(CNC(=O)c2cc3cc(C)ccc3[nH]2)cc1 | inconclusive: 25.1 µM [inhibitor, partial curve, poor fit] | 
COc1ccc(OC)c(/C=C/C(=O)NCCc2nc3ccccc3[nH]2)c1 | inconclusive: 31.6 µM [inhibitor, partial curve, poor fit] | 
COc1ccc(OC)c(CN2CCNc3cnc(OCc4cccnc4)cc3C2)c1 | active: 39.8 µM | 
O=C1CCCCC(Cc2ccccc2)(C(=O)Nc2cccnc2)N1 (stereo unspecified) | inconclusive: 28.2 µM [inhibitor, partial curve, poor fit] | 
Cc1cn2c(=O)c(S(=O)(=O)NCc3ccc(F)cc3)c(C)nc2s1 | inconclusive: 28.2 µM [inhibitor, partial curve, poor fit] | 
O=C(CCC1N=C2c3ccccc3N=C(SCC(=O)NCCc3ccccc3)N2C1=O)NCc1ccc(F)cc1 (stereo unspecified) | inconclusive: 15.8 µM [inhibitor, partial curve, poor fit] | 
CCC(NC(=O)Nc1cccc(C)c1)c1c(-n2cccc2)sc2c1CCN(C)C2 (stereo unspecified) | inconclusive: 35.5 µM [inhibitor, single point] | 

SMILES | Potency | activity change, negative = inhibition
CCc1nc2ccccc2nc1N1CCN(S(=O)(=O)c2c(C)cc(Cl)cc2C)CC1 | inconclusive: 28.2 µM [inhibitor, partial curve, poor fit] | 
O=C1Nc2ccc(-c3ccc4c(c3)OCO4)cc2C(=O)N2CCN(C(=O)C3CCCC3)C[C@@H]12 | active: 22.4 µM | 
CCN(CC)C(=O)N1CCCCCCNC(=O)[C@@H]2C[C@@H](c3nc(-c4cccnc4)no3)C[C@@H]21 | inactive | 
CN=C1NC(=NC)c2ccccc21 | inconclusive: 20 µM [inhibitor, partial curve, poor fit] | 
Cc1cccc(C)c1OCC(=O)Nc1cccc2cccnc12 | inactive | 
COc1ccc(-c2noc(-c3nnn4c3COC(c3cccc(OC)c3)C4)n2)cc1 (stereo unspecified) | inconclusive: 17.8 µM [inhibitor, partial curve] | 
N#CCCn1cc(-c2csc(NC3CC3)n2)c2ccccc21 | inconclusive: 22.4 µM [inhibitor, single point] | 
Cc1ccc(-c2cc(C(=O)N3CCN(c4cccc(C(F)(F)F)c4)CC3)c3ccccc3n2)s1 | inconclusive: 31.6 µM [inhibitor, partial curve, poor fit] | 
Fc1cccc(-c2cc(-c3cn[nH]c3)c3cncn3c2)c1 | active: 35.5 µM | 
Cc1ccc(CNC(=O)c2cc3cn(C(C)C)cc3s2)o1 | inconclusive: 12.6 µM [inhibitor, partial curve] | 
N[C@@H]1CN(c2ncccn2)C[C@H]1CO | inconclusive: 17.8 µM [inhibitor, partial curve, poor fit] | 
CCCc1cnc(C)nc1NCC1CNCCOC1 (stereo unspecified) | inconclusive: 3.16 µM [inhibitor, partial curve, poor fit] | 
Cc1ccc(OCC(=O)Nc2cccc3ccc(C)nc23)c(C)c1 | inconclusive: 35.5 µM [inhibitor, single point] | 
O=C1CCN(Cc2ccncc2)CCCC(C(=O)NCc2ccc(F)cc2)CCN1 (stereo unspecified) | inconclusive: 22.4 µM [inhibitor, single point] | 
COc1ccccc1NC(=O)C(C)OC(=O)c1ccc2ccccc2n1 (stereo unspecified) | inactive | 
O=S(=O)(c1ccc2c(c1)OCCO2)c1nc(-c2ccco2)oc1N1CCOCC1 | inconclusive: 39.8 µM [inhibitor, single point] | 
Cc1cccc(NC(=O)COc2ccc3oc4c(c3c2)CCCC4)c1 | inconclusive: 1.41 µM [inhibitor, partial curve, poor fit] | 
CCc1ccccc1N(CC)C(=O)Cn1nc(Cc2ccncc2)c2ccccc2c1=O |  | inconclusive: -32.6% [inhibitor]
O=C(c1ccncc1)N1N=C(C(F)(F)F)CC1(O)C(F)(F)F (stereo unspecified) | inconclusive: 2.82 µM [inhibitor, full curve, poor fit] | 
COCCCN(CCC(=O)NCCc1ccccc1)C(=O)c1cc(C)oc1C | inconclusive: 20 µM [inhibitor, single point] | 
